# According to the supplement of paper PMC3334620:
# Whole data set: some 33,000 sequences, median “E-score (-0.5 to 0.5)” near -0.041, cut for the highest 2% near 0.37. The list shows a part of the results.
# Target: T1, Ecm22 (UniProt Q05958)
# T1 sequence: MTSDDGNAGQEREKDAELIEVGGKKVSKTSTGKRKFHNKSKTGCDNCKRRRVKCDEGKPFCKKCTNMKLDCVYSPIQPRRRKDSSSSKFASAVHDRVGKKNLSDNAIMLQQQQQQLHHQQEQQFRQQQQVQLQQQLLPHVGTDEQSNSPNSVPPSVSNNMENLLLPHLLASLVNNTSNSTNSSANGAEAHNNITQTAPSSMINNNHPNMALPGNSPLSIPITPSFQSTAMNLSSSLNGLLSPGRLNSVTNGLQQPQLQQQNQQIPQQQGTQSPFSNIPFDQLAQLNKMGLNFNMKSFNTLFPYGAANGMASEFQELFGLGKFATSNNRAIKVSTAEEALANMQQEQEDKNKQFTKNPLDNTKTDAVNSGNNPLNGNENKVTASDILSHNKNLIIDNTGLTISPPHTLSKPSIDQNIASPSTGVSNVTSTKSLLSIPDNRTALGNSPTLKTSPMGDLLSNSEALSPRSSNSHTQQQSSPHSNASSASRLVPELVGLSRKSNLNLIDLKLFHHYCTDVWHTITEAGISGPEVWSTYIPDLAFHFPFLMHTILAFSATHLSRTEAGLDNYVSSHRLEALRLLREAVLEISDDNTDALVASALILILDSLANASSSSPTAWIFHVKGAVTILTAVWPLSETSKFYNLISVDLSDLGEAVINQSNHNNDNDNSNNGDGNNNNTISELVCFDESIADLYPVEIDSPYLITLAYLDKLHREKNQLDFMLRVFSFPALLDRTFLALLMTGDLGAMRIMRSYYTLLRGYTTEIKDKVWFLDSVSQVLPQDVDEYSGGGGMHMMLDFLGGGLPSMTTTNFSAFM
# Assay: PBM E-score (8-mer binding enrichment) (E-score (-0.5 to 0.5)); higher = stronger / more preferred TF binding; most listed sequences are background and not binding sites
# Conditions: protein concentration: 200 nM; construct: GST-full length
# Summary of the method: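 Yeast transcription factors, full-length or as DNA-binding domains, were expressed with a GST tag using PURExpress in vitro transcription/translation. At about 100-200 nM they were applied to universal all-10-mer Agilent arrays, double-stranded by primer extension on fresh or once-stripped slides. Fluorescent anti-GST detected bound protein, and masliner normalised the scans. E-scores for ungapped eight-base words, pooled with reverse complements, came from the Universal PBM Analysis Suite.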
row,Sequence,PBM E-score
1,ATTAAAAA,0.0338
2,AGGCAACC,-0.216
3,AACCAGGC,-0.126
4,TCGTGAGA,0.0762
5,CTCGCACC,0.31
6,AAAGGCGC,0.115
7,TCAAGTCA,-0.192
8,CCCATAAG,-0.252
9,ACCCTAGG,-0.139
10,AGCCTCCT,-0.168
11,AATGGCTA,0.0032
12,CCAAAAGA,-0.029
13,GGGTATGA,-0.0157
14,AGGCGAGC,-0.0186
15,GTTAGCAA,0.026
16,CACCGACG,0.129
17,AAATGAGC,-0.0263
18,ATATCCAC,-0.0162
19,CGTACCTC,0.435
20,AGGCGTAT,0.184
21,ATTCGGCG,-0.0748
22,CAACGCAA,-0.00059
23,GGCGAACA,-0.122
24,ACATGGGG,-0.282
25,GCTAACAC,-0.0776

row,Sequence,PBM E-score
1,CGTCGTCC,-0.054
2,CCCGGCGG,-0.144
3,ACCGGGCT,-0.0376
4,AGATACAC,0.0546
5,ACTAATTA,-0.02
6,GCCGATCA,-0.00015
7,GATTCGAA,0.14
8,CACCATCC,-0.342
9,CATCACAC,-0.00373
10,AGATTGCT,-0.101
11,AAATCAGC,-0.0604
12,GAACAATC,-0.0337
13,CTTCGCCC,-0.168
14,CATGCAGG,-0.222
15,GTTGAATA,0.177
16,AGTGATGC,0.0406
17,AGTTCCTC,-0.117
18,CCAACCGG,0.0471
19,ATAGACAC,0.109
20,TGGACCAA,-0.206
21,GGAGTTTA,-0.197
22,AACGTTCC,0.259
23,CTTGAGAA,-0.141
24,ATTTCGTA,0.444
25,CCGATTTC,-0.0193

row,Sequence,PBM E-score
1,AACTTCTC,0.119
2,CCCCGCCC,0.146
3,ATACCAAA,-0.191
4,ATGCACTC,0.0164
5,ACAGATAG,-0.0946
6,GCTGGGTA,-0.0524
7,CCATTGAG,-0.0705
8,ACTTATGG,-0.124
9,AACAGTAT,0.163
10,ATTTATTG,-0.177
11,ATACCGCG,-0.0245
12,GTTGGACA,-0.173
13,ATAGAAAG,-0.132
14,GAGCGCTC,0.00025
15,TACTATGA,0.056
16,AGTCGGAC,0.113
17,GACCATCA,-0.0551
18,CAAGTTGA,-0.00394
19,CTGCCGCC,-0.192
20,GTTGCCTA,-0.0745
21,AAAGTTAA,-0.0941
22,AACGGCAG,0.253
23,AAGTAAGT,-0.077
24,ACTTATAC,0.33
25,ATTGTGTC,-0.111

row,Sequence,PBM E-score
1,GATCTCGC,0.204
2,CAATTCTC,-0.125
3,AGGAATGA,-0.112
4,GTGCGACA,0.21
5,AGTTAGTC,-0.103
6,ACGCAAGT,-0.102
7,CCACTCGA,0.0344
8,AACATTGA,-0.0998
9,CGTGAGAA,-0.0164
10,CGTGGGCA,-0.289
11,CGTATCGA,0.299
12,CATGGCAC,-0.0282
13,CGCGGGAC,-0.0556
14,CACTTCCG,-0.143
15,AGTTAGGA,-0.182
16,GGCTAGTA,-0.00889
17,ACTTCCCG,0.0496
18,ACCCTCGT,0.449
19,CATGGTAA,-0.0589
20,AATTGCGC,0.137
21,ACGTATAC,0.381
22,CTTTCCAC,-0.114
23,CAACAATA,-0.0877
24,ACCCCCCT,-0.25
25,AGGATTCA,-0.182

row,Sequence,PBM E-score
1,TACTGTCA,-0.012
2,CTGGAGTC,-0.0841
3,CTCCAAGA,-0.22
4,CTACCGAA,-0.0377
5,CGCCTAAC,0.0393
6,GCTAGTGA,-0.0577
7,CCGGTTAG,-0.0257
8,AGTACCAC,0.0416
9,ACCCTCAT,-0.0611
10,CGGCGCAG,-0.0964
11,TAACAGGA,-0.0348
12,AACGAGTG,0.421
13,ATACTCCG,-0.0755
14,CACGCATC,0.179
15,CGAAATGC,0.139
16,GCCGATAC,0.119
17,GTACTCAC,0.129
18,TTGTCAAA,-0.00242
19,TAGGTAGA,-0.226
20,AAGTAAAG,-0.26
21,ATTCCCAG,-0.0258
22,CCTTCAAA,-0.195
23,CGTCTCTA,-0.154
24,GCAAATAA,-0.0637
25,ATATGCTA,0.0175

row,Sequence,PBM E-score
1,CTGGCGAC,-0.209
2,AACCGTCA,-0.233
3,AACCTTCG,0.156
4,CTTGAATA,-0.166
5,CCTCCCAA,-0.107
6,GAACTAGA,0.0301
7,ACGCTGCT,-0.00608
8,CAAATTGC,0.104
9,GGAGGAGA,-0.114
10,CCGGTGAC,-0.0265
11,ACTAGCAC,-0.0974
12,ATTTTATA,0.0403
13,AGTTGTAA,-0.0537
14,CTCCGATA,-0.161
15,GCTTCTAC,0.104
16,AGCAATGG,-0.0916
17,AGGACAGA,-0.324
18,GACCAGTC,-0.26
19,ATGGTGAG,-0.163
20,TTCGCGAA,0.28
21,CATAGATA,-0.181
22,CGGAAAGC,0.0405
23,AAACTTAG,-0.191
24,ATCTGCCC,-0.0671
25,TCGATACA,0.13

row,Sequence,PBM E-score
1,CCGATAAC,0.12
2,ACAGTGAT,0.0761
3,ATTAGGAG,-0.155
4,ATGGAAGC,-0.118
5,CAGACATC,-0.0843
6,AATGCGGG,0.0146
7,GGCGGTAA,0.131
8,GTTTTGAA,-0.087
9,ATCGCACC,0.187
10,CCAAGTGA,-0.177
11,AAGGTTCC,-0.273
12,GGCGTACC,0.279
13,TACTTTGA,-0.0416
14,TAACGGTA,0.143
15,GGGTCCGA,0.145
16,CATGGAGA,-0.251
17,CCAGGAGA,-0.17
18,GGATCGCA,0.0913
19,CCCCTAAA,-0.238
20,CCTGATAA,0.00885
21,CAGGCTGC,-0.272
22,GTATTAAA,0.123
23,CATCGCTC,0.204
24,CCTAACAA,-0.113
25,GGAGCATA,0.026

row,Sequence,PBM E-score
1,GTTTTCAA,0.0626
2,CACCGTTC,0.307
3,CCGCCACG,-0.167
4,ACTTGGTC,0.139
5,ACTATGGG,-0.118
6,AGTCGTCC,-0.0209
7,ACTGCCAC,-0.0822
8,AAGCATAC,0.0946
9,GGCGCTGA,-0.309
10,ATCATGGC,-0.119
11,ACATGTCG,0.0858
12,ATAGGAAG,0.0431
13,ATGCCAGG,-0.214
14,AGGAACTA,0.123
15,CGTGATCA,-0.114
16,AATCGTTA,0.269
17,ATATGCCC,-0.261
18,TCCACGGA,-0.117
19,ATAAAGCA,-0.21
20,ATATCAAG,0.0598
21,CATACAGG,-0.109
22,CCCCTGAG,-0.102
23,AGATGTAA,-0.0972
24,CTATCATC,0.0272
25,ACTGAGGG,-0.17

row,Sequence,PBM E-score
1,CGGTCCAA,-0.145
2,TATTCTGA,-0.106
3,CTATGGAG,-0.148
4,AAGTTTAC,0.202
5,AGTACGGC,0.339
6,GCTTGAGA,-0.0858
7,CTAGACGA,0.106
8,ATAGTTTA,0.0483
9,ACACCGGG,-0.216
10,AGACTGGG,-0.224
11,CCAGCTCC,-0.0495
12,GAATTGCA,-0.00573
13,ATACCTAC,0.0801
14,GATGACCC,-0.064
15,ACTCGAAC,0.174
16,AGACTGCG,-0.242
17,CTTCACTA,-0.235
18,ACCGAGGA,0.303
19,ACGCTAGA,-0.161
